Among all 310,000 compounds or so, about 2,200 (0.71%) showed an effect of 50% or more. Effects have a minus sign here. This is one part of the list.
Biological target: human ether-à-go-go-related gene (hERG) potassium channel (human, UniProt Q12809)
Assay: primary screen, population patch clamp on CHO cells stably expressing hERG

Chain of human ether-à-go-go-related gene (hERG) potassium channel (Q12809 whole entry, looked up): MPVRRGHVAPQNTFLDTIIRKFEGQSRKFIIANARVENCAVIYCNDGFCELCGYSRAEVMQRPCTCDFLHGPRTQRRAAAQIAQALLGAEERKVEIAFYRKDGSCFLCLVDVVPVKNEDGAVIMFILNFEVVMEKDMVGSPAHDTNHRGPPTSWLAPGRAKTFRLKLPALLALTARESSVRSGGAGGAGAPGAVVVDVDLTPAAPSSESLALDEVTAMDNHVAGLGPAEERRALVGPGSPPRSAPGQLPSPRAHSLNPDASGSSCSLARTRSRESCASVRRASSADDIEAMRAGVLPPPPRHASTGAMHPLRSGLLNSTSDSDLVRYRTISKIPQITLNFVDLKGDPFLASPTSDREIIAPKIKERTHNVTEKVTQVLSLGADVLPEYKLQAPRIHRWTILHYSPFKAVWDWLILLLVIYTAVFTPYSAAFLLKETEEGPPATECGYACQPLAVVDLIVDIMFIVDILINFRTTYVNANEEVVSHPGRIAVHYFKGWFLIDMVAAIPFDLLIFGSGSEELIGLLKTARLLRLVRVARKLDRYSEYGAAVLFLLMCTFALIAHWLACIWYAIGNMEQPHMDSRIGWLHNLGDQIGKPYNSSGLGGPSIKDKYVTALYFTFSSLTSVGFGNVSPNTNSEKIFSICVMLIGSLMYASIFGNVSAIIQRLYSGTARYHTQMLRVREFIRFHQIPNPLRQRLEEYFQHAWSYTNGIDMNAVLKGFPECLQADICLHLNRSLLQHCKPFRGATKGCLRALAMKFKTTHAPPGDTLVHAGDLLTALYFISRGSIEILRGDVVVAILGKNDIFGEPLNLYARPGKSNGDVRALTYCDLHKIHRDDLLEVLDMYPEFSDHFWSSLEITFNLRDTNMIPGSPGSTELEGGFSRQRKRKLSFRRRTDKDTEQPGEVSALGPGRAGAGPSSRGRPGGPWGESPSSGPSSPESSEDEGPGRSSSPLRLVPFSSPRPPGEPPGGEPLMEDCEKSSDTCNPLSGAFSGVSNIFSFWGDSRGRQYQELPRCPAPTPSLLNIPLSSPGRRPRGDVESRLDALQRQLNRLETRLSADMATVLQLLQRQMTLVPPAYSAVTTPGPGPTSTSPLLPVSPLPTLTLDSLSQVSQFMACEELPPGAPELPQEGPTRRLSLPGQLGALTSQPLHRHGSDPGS

Structure (SMILES) | hERG current change (%, negative = inhibition) at 1uM [%]
CC1=NN(C(=O)c2ccc(Cn3cc(Br)c([N+](=O)[O-])n3)o2)C(O)(C(F)(F)F)C1 (centres unmarked) | 6.39
Cc1cc(C)nc(SCc2nnc(SCC(=O)Nc3nc(-c4ccccc4)cs3)n2-c2ccccc2)n1 | 5.19
O=C(NCc1ccco1)c1cnn2c(C(F)(F)F)cc(-c3ccccc3)nc12 | 8.62
Cc1ccc(C2=CC(c3ccc(N(C)C)cc3)n3nnnc3N2)cc1 (centres unmarked) | 11.7
C#C[C@]1(O)CC[C@H]2[C@@H]3CCc4cc(OC)ccc4[C@H]3CC[C@@]21C | 16.8
CCOc1ccc(/C=C2/C(=N)N3OC(C)=CC3=NC2=O)cc1OC | 9.54
S=C(NCCc1ccccn1)Nc1ccc(Cl)c(Cl)c1 | 14
O=C(COc1ccc(Cl)cc1)N1CCN(C/C=C/c2ccccc2)CC1 | -36.5
CC(=O)OCc1c(C)cc(C)c(/C=C(/C#N)C(N)=O)c1C | 6.27
O=C(CN1CCN(Cc2ccc(Cl)cc2)C1=O)N1CCC2(CC1)OCCO2 | -0.829
CCC(CC)c1nnc(NC(=O)CCNC(=O)c2ccccc2Cl)s1 | -0.0596
CN(C)C(=O)COc1ccc(S(=O)(=O)c2ccc(OCC(=O)N(C)C)cc2)cc1 | 11.1
COc1ccc(CNc2ncnc3c2[nH]c2cc(OC)c(OC)cc23)cc1 | 14.9
CCCNC(=O)OC[C@H]1O[C@H](CCO/N=C/c2ccc(C(=O)N3[C@H](c4ccc(C)cc4)[C@@H](C)CC[C@H]3C(=O)OC)cc2)C=C[C@@H]1Oc1ccc(OC)cc1 | 7.58
CN1CCN(C(=O)CC23CC4CC(CC(C4)C2)C3)CC1 | 5.9
COc1ccc(NC(=O)Cn2nnc(C(=O)NCc3ccccc3)c2N)c(OC)c1 | 8.73
COCCn1cc(C(=O)N2CCCC(C)C2)c2c3ccccc3n(C)c2c1=O (centres unmarked) | 7.72
Cc1cc(OC(=O)c2cccc(C(F)(F)F)c2)c([N+](=O)[O-])c(=O)[nH]1 | 13.6
Cc1ccc(C)c(S(=O)(=O)NCCOc2nc(NC(C)C)nc(NC(C)C)n2)c1 | -1.35
COc1cc(OC)cc(C(=O)O/N=C(\N)c2ccncc2)c1 | 5.41
O=C(c1ccc(S(=O)(=O)c2ccc(F)cc2)c([N+](=O)[O-])c1)N1CCCCCC1 | 3.83
CC1=C(C(=O)Nc2ccccc2C(=O)NC2CCCCC2)SCCO1 | 7.83
CCc1nc(SCc2cc(Cl)ccc2OC)n[nH]1 | 18.4
CCOc1ccc(C(C)=O)cc1CN1C(=O)NC2(CCCCCC2)C1=O | 13.5
CCOC(=O)c1cnc(SCC(=O)N2CCOCC2)nc1N | 12.3
CCN1C(=O)C(O)(CC(=O)c2ccc3c(c2)OCCO3)c2ccccc21 (centres unmarked) | 5.48
Cc1ccc(-n2c(-c3ccc(Cl)cc3)c[n+]3c2CCC3)cc1.[Br-] | -17.3

Structure (SMILES) | hERG current change (%, negative = inhibition) at 1uM [%]
Cn1c2c(c(=O)n(C)c1=O)C(c1ccccc1Cl)CC(=O)N2 (centres unmarked) | 12
CCn1c(=O)n(CCc2ccccc2)c(=O)c2c3c(sc21)CCCC3 | 3.23
Cc1ccc2c(c1)cc(C(=O)N1CCN(c3ccccn3)CC1)n2C | 12
C/C(CC(=O)Nc1ccccc1Cl)=N\NC(=O)C(=O)NCCO | -0.701
CCOC(=O)c1c(NC(=O)C2CC(Cl)=CCC2C(=O)O)sc2c1CCCCC2 (centres unmarked) | 9.14
CCCCN1C(=O)CCC(C(=O)O)C1c1ccccc1 (centres unmarked) | -2.27
COc1cc(CN2CCCC(C(=O)c3ccc4c5c(cccc35)CC4)C2)cc(OC)c1O (centres unmarked) | 15.6
O=C(Cc1ccc(Br)cc1)OCC(=O)c1ccc2c(c1)OCCO2 | 10.1
COc1ccc(C(=O)N2CCC(C(=O)NC3CC3)CC2)cc1 | 13.6
O=C(CSCc1ccccc1)NCc1ccc2c(c1)OCO2 | 0.344
CC1CN(S(=O)(=O)c2cc(C(=O)N(CCc3ccccc3)Cc3ccccc3)ccc2Cl)CC(C)O1 (centres unmarked) | 13.3
CN(C(=O)COC(=O)c1cc(S(=O)(=O)N2CCOCC2)ccc1F)C1CCS(=O)(=O)C1 (centres unmarked) | 14.2
O=S(=O)(Nc1ccccc1)c1ccc(-c2cnc(C3CC3)o2)cc1 | 9.09
O=C(O)C/C(=C\c1cccc(NC(=O)c2ccccc2Cl)c1)c1nc2ccccc2s1 | 4.35
COCCSc1nnc(NC(=O)C2CCN(C(=O)c3ccco3)CC2)s1 | 18.5
O=C1NC(NS(=O)(=O)c2ccc(Cl)cc2)(C(F)(F)F)C(=O)N1c1ccccc1 (centres unmarked) | 12.6
COc1ccc(-n2c(O)c(/C=N/Nc3nc(C)cc(C)n3)c3ccccc3c2=O)cc1OC | 8.03
Fc1ccc(CSc2nnc3ccc(-c4ccncc4)nn23)cc1 | -61.2
O=C(NCCCn1ccnc1)c1ccc(Cl)c(S(=O)(=O)N2CCOCC2)c1 | 6.49
Cc1ncc([N+](=O)[O-])n1S(=O)(=O)c1cc(Cl)ccc1Cl | 13.3
CS(=O)(=O)Oc1ccc2c(c1)O/C(=C\c1cccc([N+](=O)[O-])c1)C2=O | 7.82
Cc1ccc(S(=O)(=O)Nc2ccccn2)cc1[N+](=O)[O-] | 14.6
COc1ccc(S(=O)(=O)N2CCN(C(=O)NCc3ccc(OC)c(OC)c3)CC2)cc1 | 11.5
Cl.O=C1c2cccc3cccc(c23)C(=O)N1CCN1CCN(CC(O)COCc2ccc(Cl)cc2)CC1 (centres unmarked) | -32.8
FC(F)(F)c1cc(C(F)(F)F)c2ccc(Oc3ccccc3)nc2n1 | 8.38
O=c1[nH]c(C2CCN(S(=O)(=O)c3ccccc3)CC2)nc2c1nnn2Cc1c(F)cccc1Cl | 8.03
